This is one part of the list. Many values rest on one well or one pass, so single values are uncertain.

Test systems include A101D; A2058; A375.
Common to all, as to experiment: cell count relative to DMSO control; melanoma cells; higher = more viable cells
Holding throughout (settings): library dose: standard library concentration; 72 h
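Note: cells treated in 1,536-well plates, then fixed and DAPI-stained, with nuclei counted from automated high-throughput microscope images.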

On to `Cn1c(=O)n(-c2ccc(C(C)(C)C#N)cc2)c2c3cc(-c4cnc5ccccc5c4)ccc3ncc21` + CN(C)S(=O)(=O)c1ccc2c(c1)/C(=C/c1cc3c([nH]1)CCCC3)C(=O)N2 [SU6656] (first compound 0.02 µM, partner dose 2 µM), for which the cell count stood at 74.7% with A101D, 74% in the assay on A2058 and 138% with A375.

Take `COc1ccc(C2=N[C@@H](c3ccc(Cl)cc3)[C@@H](c3ccc(Cl)cc3)N2C(=O)N2CCNC(=O)C2)c(OC(C)C)c1` [Nutlin-3] + C#Cc1cccc(Nc2ncnc3cc(OCCOC)c(OCCOC)cc23)c1 [erlotinib] (first compound 0.5 µM, partner dose 4 µM): the cell count in the assay on A101D was found to be 62.5%; with A2058 it was 97.7%; in the assay on A375, 92.2%.

With `Cc1cn(-c2cc(NC(=O)c3ccc(C)c(Nc4nccc(-c5cccnc5)n4)c3)cc(C(F)(F)F)c2)cn1` [nilotinib] + C=C(c1ccc(C(=O)O)cc1)c1cc2c(cc1C)C(C)(C)CCC2(C)C [Bexarotene] (first compound 1 µM, partner dose 10 µM), the cell count in the assay with A101D was 83.4%; with A2058, 96.3%; with A375, 142%.

Take `Cc1cn(-c2cc(NC(=O)c3ccc(C)c(Nc4nccc(-c5cccnc5)n4)c3)cc(C(F)(F)F)c2)cn1` [nilotinib] + CC(C)(C)c1cnc(CSc2cnc(NC(=O)C3CCNCC3)s2)o1 [SNS-032] (first compound 1 µM, partner dose 0.05 µM): the figures for the cell count in the assay on A101D, in the assay on A2058 and in the assay with A375 were 78.3%, 109% and 138%, respectively.

`Cn1c(=O)n(-c2ccc(C(C)(C)C#N)cc2)c2c3cc(-c4cnc5ccccc5c4)ccc3ncc21` + Cn1cncc1[C@@](N)(c1ccc(Cl)cc1)c1ccc2c(c1)c(-c1cccc(Cl)c1)cc(=O)n2C [tipifarnib] (first compound 0.02 µM, partner dose 0.05 µM): the figures for the cell count in the assay on A101D, in the assay on A2058 and with A375 were 62.3%, 49.5% and 80%, respectively.

With `Cc1cc(Nc2cc(N3CCN(C)CC3)nc(/C=C/c3ccccc3)n2)n[nH]1` + Cn1cncc1[C@@](N)(c1ccc(Cl)cc1)c1ccc2c(c1)c(-c1cccc(Cl)c1)cc(=O)n2C [tipifarnib] (first compound 0.2 µM, partner dose 0.05 µM), the cell count with A101D turned out to be 69.2%; with A2058, 80.1%; in the assay with A375, 74.6%.

`COc1ccc(C2=N[C@@H](c3ccc(Cl)cc3)[C@@H](c3ccc(Cl)cc3)N2C(=O)N2CCNC(=O)C2)c(OC(C)C)c1` [Nutlin-3] + Cc1ccc(NC(=O)c2cccc(N(C)C)c2)cc1NC(=O)c1ccc(O)cc1 [ZM336372] (first compound 0.5 µM, partner dose 10 µM): the figures for the cell count in the assay with A101D, with A2058 and in the assay on A375 were 80.4%, 86.8% and 91.7%, respectively.

`CC(C)C[C@H](NC(=O)[C@H](Cc1ccccc1)NC(=O)c1cnccn1)B(O)O` [Bortezomib] + CNC(=O)c1cc(Oc2ccc(NC(=O)Nc3ccc(Cl)c(C(F)(F)F)c3)cc2)ccn1 [sorafenib] (first compound 0.005 µM, partner dose 2 µM): the cell count with A101D is 15%; in the assay with A2058 it was 12%; with A375, 126%.

Turning to `Cn1c(=O)n(-c2ccc(C(C)(C)C#N)cc2)c2c3cc(-c4cnc5ccccc5c4)ccc3ncc21` + CN(NC(=O)CC(=O)NN(C)C(=S)c1ccccc1)C(=S)c1ccccc1 [STA4783] (first compound 0.02 µM, partner dose 0.03 µM), the cell count in the assay with A101D was 48.9%; in the assay on A2058 it was 10.8%; in the assay with A375 it was 81.8%.

Consider `COc1ccc(C2=N[C@@H](c3ccc(Cl)cc3)[C@@H](c3ccc(Cl)cc3)N2C(=O)N2CCNC(=O)C2)c(OC(C)C)c1` [Nutlin-3] + COc1ccc(Cl)c(Nc2nc3ccccc3nc2NS(=O)(=O)c2cccc(NC(=O)C(C)(C)N)c2)c1 [XL147] (first compound 0.5 µM, partner dose 4 µM), for which the cell count is 68.3% with A101D, 75.6% in the assay with A2058 and 95.5% in the assay with A375.

In the case of `COc1ccc(C2=N[C@@H](c3ccc(Cl)cc3)[C@@H](c3ccc(Cl)cc3)N2C(=O)N2CCNC(=O)C2)c(OC(C)C)c1` [Nutlin-3] + NCC(=O)Nc1ccc(-n2nc(C(F)(F)F)cc2-c2ccc3c(ccc4ccccc43)c2)cc1 [OSU03012] (first compound 0.5 µM, partner dose 5 µM), the values for the cell count in the assay on A101D, in the assay on A2058 and in the assay with A375 were 72.3%, 84.4% and 60.2%, respectively.

As to `CC(C)C[C@H](NC(=O)[C@H](Cc1ccccc1)NC(=O)c1cnccn1)B(O)O` [Bortezomib] + Nc1cccc2c1CN(C1CCC(=O)NC1=O)C2=O [lenalidomide] (first compound 0.005 µM, partner dose 5 µM), the cell count with A101D was 14.8%; with A2058 it was 16.6%; in the assay with A375 it was 87.8%.

Turning to `CC(C)C[C@H](NC(=O)[C@H](Cc1ccccc1)NC(=O)c1cnccn1)B(O)O` [Bortezomib] + CCCS(=O)(=O)Nc1ccc(F)c(C(=O)c2c[nH]c3ncc(Cl)cc23)c1F [PLX4720] (first compound 0.005 µM, partner dose 0.4 µM), the cell count with A101D came to 14.3%; in the assay with A2058 it was 17.9%; with A375, 97.6%.

Regarding `Cn1c(=O)n(-c2ccc(C(C)(C)C#N)cc2)c2c3cc(-c4cnc5ccccc5c4)ccc3ncc21` + C[C@@H]1CCN(C(=O)CC#N)C[C@@H]1N(C)c1ncnc2[nH]ccc12 [CP690550] (first compound 0.02 µM, partner dose 5 µM), the values for the cell count with A101D, in the assay with A2058 and in the assay on A375 were 78.4%, 89% and 89.2%, respectively.

Consider `COc1ccc(C2=N[C@@H](c3ccc(Cl)cc3)[C@@H](c3ccc(Cl)cc3)N2C(=O)N2CCNC(=O)C2)c(OC(C)C)c1` [Nutlin-3] + COCC[n+]1c2c(n(Cc3cnccn3)c1C)C(=O)c1ccccc1C2=O [YM155] (first compound 0.5 µM, partner dose 0.002 µM), for which the cell count was determined as 58.8% in the assay with A101D, 24.9% in the assay on A2058 and 70.4% in the assay with A375.

Consider `Cc1cc(Nc2cc(N3CCN(C)CC3)nc(/C=C/c3ccccc3)n2)n[nH]1` + C[C@@H]1CCN(C(=O)CC#N)C[C@@H]1N(C)c1ncnc2[nH]ccc12 [CP690550] (first compound 0.2 µM, partner dose 5 µM), for which the values for the cell count in the assay with A101D, in the assay with A2058 and with A375 were 84.8%, 86.8% and 76.2%, respectively.

As to `CC(C)C[C@H](NC(=O)[C@H](Cc1ccccc1)NC(=O)c1cnccn1)B(O)O` [Bortezomib] + COc1cc2c(Oc3ccc4[nH]c(C)cc4c3F)ncnc2cc1OCCCN1CCCC1 [cediranib] (first compound 0.005 µM, partner dose 2 µM), the cell count amounted to 17.9% in the assay with A101D, 10.8% with A2058 and 74.4% with A375.

As for `Cc1cn(-c2cc(NC(=O)c3ccc(C)c(Nc4nccc(-c5cccnc5)n4)c3)cc(C(F)(F)F)c2)cn1` [nilotinib] + CCc1ccc(CCOc2ccc(CC3SC(=O)NC3=O)cc2)nc1 [pioglitazone] (first compound 1 µM, partner dose 10 µM), the cell count came out at 95.6% in the assay on A101D, 124% in the assay on A2058 and 148% in the assay with A375.

For the molecule `Cn1c(=O)n(-c2ccc(C(C)(C)C#N)cc2)c2c3cc(-c4cnc5ccccc5c4)ccc3ncc21` + COc1ccc(Cl)c(Nc2nc3ccccc3nc2NS(=O)(=O)c2cccc(NC(=O)C(C)(C)N)c2)c1 [XL147] (first compound 0.02 µM, partner dose 4 µM), the cell count with A101D turned out to be 81.3%; in the assay on A2058 it was 58.3%; with A375, 91.5%.

`COc1ccc(C2=N[C@@H](c3ccc(Cl)cc3)[C@@H](c3ccc(Cl)cc3)N2C(=O)N2CCNC(=O)C2)c(OC(C)C)c1` [Nutlin-3] + O=C(O)[C@@H]1[O][Sb](=[O])([O][Sb]2(=[O])[O][C@H]([C@H](O)CO)[C@H](O)[C@H](C(=O)O)[O]2)[O][C@H]([C@H](O)CO)[C@@H]1O [stibogluconate] (first compound 0.5 µM, partner dose 10 µM): the cell count was 70.5% with A101D, 115% in the assay with A2058 and 74.3% with A375.

Regarding `CC(C)C[C@H](NC(=O)[C@H](Cc1ccccc1)NC(=O)c1cnccn1)B(O)O` [Bortezomib] + OCCn1cc(-c2cnc3nnn(Cc4ccc5ncccc5c4)c3n2)cn1 [PF04217903] (first compound 0.005 µM, partner dose 5 µM), the cell count turned out to be 8.07% in the assay with A101D, 10.6% with A2058 and 76.6% with A375.

For `Cc1cn(-c2cc(NC(=O)c3ccc(C)c(Nc4nccc(-c5cccnc5)n4)c3)cc(C(F)(F)F)c2)cn1` [nilotinib] + O=C(O)c1ccc2c(c1)nc(Nc1cccc(Cl)c1)c1ccncc12 [CX4945] (first compound 1 µM, partner dose 2 µM), the values for the cell count with A101D, in the assay on A2058 and in the assay with A375 were 74%, 92.3% and 102%, respectively.

Consider `COc1ccc(C2=N[C@@H](c3ccc(Cl)cc3)[C@@H](c3ccc(Cl)cc3)N2C(=O)N2CCNC(=O)C2)c(OC(C)C)c1` [Nutlin-3] + O=C(Nc1cccc(Cl)c1)Nc1ncc(CCNc2ncnc3ccsc23)s1 [SNS314] (first compound 0.5 µM, partner dose 0.004 µM), for which the cell count is 78.9% in the assay on A101D, 95.8% in the assay with A2058 and 81.2% in the assay with A375.

Take `Cc1cc(Nc2cc(N3CCN(C)CC3)nc(/C=C/c3ccccc3)n2)n[nH]1` + OCCn1cc(-c2cnc3nnn(Cc4ccc5ncccc5c4)c3n2)cn1 [PF04217903] (first compound 0.2 µM, partner dose 5 µM): the cell count with A101D was found to be 83%; in the assay with A2058, 85.4%; in the assay on A375, 78.9%.

In the case of `Cc1cc(Nc2cc(N3CCN(C)CC3)nc(/C=C/c3ccccc3)n2)n[nH]1` + COc1cc2ncnc(Nc3ccc(Oc4ccccc4)cc3)c2cc1OC [SrcI1] (first compound 0.2 µM, partner dose 10 µM), the cell count was determined as 51.9% in the assay with A101D, 70.2% with A2058 and 108% in the assay with A375.

Consider `Cc1cn(-c2cc(NC(=O)c3ccc(C)c(Nc4nccc(-c5cccnc5)n4)c3)cc(C(F)(F)F)c2)cn1` [nilotinib] + O=C(Nc1cccc(Cl)c1)Nc1ncc(CCNc2ncnc3ccsc23)s1 [SNS314] (first compound 1 µM, partner dose 0.004 µM), for which the figures for the cell count with A101D, in the assay with A2058 and in the assay with A375 were 71.1%, 73.8% and 118%, respectively.

In the case of `Cc1cc(Nc2cc(N3CCN(C)CC3)nc(/C=C/c3ccccc3)n2)n[nH]1` + Cc1ccc(NC(=O)c2cccc(N(C)C)c2)cc1NC(=O)c1ccc(O)cc1 [ZM336372] (first compound 0.2 µM, partner dose 10 µM), the values for the cell count in the assay with A101D, with A2058 and with A375 were 61.8%, 83.8% and 97.7%, respectively.

(Values after the supplement of paper PMC4604168 (melanoma cell lines).)
